According to article PMC9911399, “Two distinct binding modes provide the RNA-binding protein RbFox with extraordinary sequence specificity”:
Residue numbers refer to the chain shown, from its start. The list shows a part of the results.

T1: RBFOX1 RRM RbFoxmut (Fox-RRM*) (Homo sapiens, UniProt Q9NWB1 109-208, R118D;E147R;N151S;E152T)
T1 sequence: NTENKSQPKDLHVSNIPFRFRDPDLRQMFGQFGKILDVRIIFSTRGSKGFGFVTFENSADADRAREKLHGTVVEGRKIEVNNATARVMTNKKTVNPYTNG

B1: CCUUUAA (DNA:RNA)
RNA: GGGAGACCGGAAUUCAGAUUGUCCCCUUUAAUUAAAUCCCGUCGUAGCCACCA
DNA 1: CAATCTGAATTCCGGTCTCCC
DNA 2: TGGTGGCTACGACGGGATT
B2: UUGGCUU (DNA:RNA)
RNA: GGGAGACCGGAAUUCAGAUUGUCCUUGGCUUUUAAAUCCCGUCGUAGCCACCA
DNA 1: CAATCTGAATTCCGGTCTCCC
DNA 2: TGGTGGCTACGACGGGATT
B3: GGGACGG (DNA:RNA)
RNA: B2 RNA with U25G, U26G, G28A, U30G, U31G
DNA 1: CAATCTGAATTCCGGTCTCCC
DNA 2: TGGTGGCTACGACGGGATT
B4: AACUAAG (DNA:RNA)
RNA: B1 RNA with C25A, C26A, U27C, U29A, A31G
DNA 1: CAATCTGAATTCCGGTCTCCC
DNA 2: TGGTGGCTACGACGGGATT
B5: CGACCUU (DNA:RNA)
RNA: B2 RNA with U25C, U26G, G27A, G28C
DNA 1: CAATCTGAATTCCGGTCTCCC
DNA 2: TGGTGGCTACGACGGGATT
B6: AAAUCGG (DNA:RNA)
RNA: B1 RNA with C25A, C26A, U27A, U29C, A30G, A31G
DNA 1: CAATCTGAATTCCGGTCTCCC
DNA 2: TGGTGGCTACGACGGGATT
B7: CGGUUGU (DNA:RNA)
RNA: B1 RNA with C26G, U27G, A30G, A31U
DNA 1: CAATCTGAATTCCGGTCTCCC
DNA 2: TGGTGGCTACGACGGGATT
B8: CCCUGAC (DNA:RNA)
RNA: B1 RNA with U27C, U29G, A31C
DNA 1: CAATCTGAATTCCGGTCTCCC
DNA 2: TGGTGGCTACGACGGGATT
B9: AUUUGAU (DNA:RNA)
RNA: B1 RNA with C25A, C26U, U29G, A31U
DNA 1: CAATCTGAATTCCGGTCTCCC
DNA 2: TGGTGGCTACGACGGGATT
B10: UCUGCUC (DNA:RNA)
RNA: B2 RNA with U26C, G27U, U31C
DNA 1: CAATCTGAATTCCGGTCTCCC
DNA 2: TGGTGGCTACGACGGGATT
B11: CGACUCG (DNA:RNA)
RNA: B1 RNA with C26G, U27A, U28C, A30C, A31G
DNA 1: CAATCTGAATTCCGGTCTCCC
DNA 2: TGGTGGCTACGACGGGATT
B12: CUCGCCC (DNA:RNA)
RNA: B2 RNA with U25C, G27C, U30C, U31C
DNA 1: CAATCTGAATTCCGGTCTCCC
DNA 2: TGGTGGCTACGACGGGATT
B13: AGCUUCU (DNA:RNA)
RNA: B1 RNA with C25A, C26G, U27C, A30C, A31U
DNA 1: CAATCTGAATTCCGGTCTCCC
DNA 2: TGGTGGCTACGACGGGATT
B14: AACAUUA (DNA:RNA)
RNA: B1 RNA with C25A, C26A, U27C, U28A, A30U
DNA 1: CAATCTGAATTCCGGTCTCCC
DNA 2: TGGTGGCTACGACGGGATT
B15: UAUCGCG (DNA:RNA)
RNA: B1 RNA with C25U, C26A, U28C, U29G, A30C, A31G
DNA 1: CAATCTGAATTCCGGTCTCCC
DNA 2: TGGTGGCTACGACGGGATT
B16: AAGCCGC (DNA:RNA)
RNA: B2 RNA with U25A, U26A, G28C, U30G, U31C
DNA 1: CAATCTGAATTCCGGTCTCCC
DNA 2: TGGTGGCTACGACGGGATT
B17: AGGUACU (DNA:RNA)
RNA: B2 RNA with U25A, U26G, G28U, C29A, U30C
DNA 1: CAATCTGAATTCCGGTCTCCC
DNA 2: TGGTGGCTACGACGGGATT
B18: AUAAUCG (DNA:RNA)
RNA: B1 RNA with C25A, C26U, U27A, U28A, A30C, A31G
DNA 1: CAATCTGAATTCCGGTCTCCC
DNA 2: TGGTGGCTACGACGGGATT
B19: CAUUAAG (DNA:RNA)
RNA: B1 RNA with C26A, U29A, A31G
DNA 1: CAATCTGAATTCCGGTCTCCC
DNA 2: TGGTGGCTACGACGGGATT
B20: CACAAGG (DNA:RNA)
RNA: B1 RNA with C26A, U27C, U28A, U29A, A30G, A31G
DNA 1: CAATCTGAATTCCGGTCTCCC
DNA 2: TGGTGGCTACGACGGGATT
B21: CUUCUAC (DNA:RNA)
RNA: B1 RNA with C26U, U28C, A31C
DNA 1: CAATCTGAATTCCGGTCTCCC
DNA 2: TGGTGGCTACGACGGGATT
B22: UCUUGCC (DNA:RNA)
RNA: B1 RNA with C25U, U29G, A30C, A31C
DNA 1: CAATCTGAATTCCGGTCTCCC
DNA 2: TGGTGGCTACGACGGGATT
B23: AAAUAAG (DNA:RNA)
RNA: B1 RNA with C25A, C26A, U27A, U29A, A31G
DNA 1: CAATCTGAATTCCGGTCTCCC
DNA 2: TGGTGGCTACGACGGGATT
B24: GUCUCUC (DNA:RNA)
RNA: B2 RNA with U25G, G27C, G28U, U31C
DNA 1: CAATCTGAATTCCGGTCTCCC
DNA 2: TGGTGGCTACGACGGGATT
B25: ACAGUCU (DNA:RNA)
RNA: B1 RNA with C25A, U27A, U28G, A30C, A31U
DNA 1: CAATCTGAATTCCGGTCTCCC
DNA 2: TGGTGGCTACGACGGGATT
B26: AGUGUUA (DNA:RNA)
RNA: B1 RNA with C25A, C26G, U28G, A30U
DNA 1: CAATCTGAATTCCGGTCTCCC
DNA 2: TGGTGGCTACGACGGGATT
B27: UGCGACG (DNA:RNA)
RNA: B2 RNA with U26G, G27C, C29A, U30C, U31G
DNA 1: CAATCTGAATTCCGGTCTCCC
DNA 2: TGGTGGCTACGACGGGATT
B28: GGAGGAA (DNA:RNA)
RNA: B1 RNA with C25G, C26G, U27A, U28G, U29G
DNA 1: CAATCTGAATTCCGGTCTCCC
DNA 2: TGGTGGCTACGACGGGATT
B29: UAUCUAU (DNA:RNA)
RNA: B1 RNA with C25U, C26A, U28C, A31U
DNA 1: CAATCTGAATTCCGGTCTCCC
DNA 2: TGGTGGCTACGACGGGATT
B30: GAUCUCG (DNA:RNA)
RNA: B1 RNA with C25G, C26A, U28C, A30C, A31G
DNA 1: CAATCTGAATTCCGGTCTCCC
DNA 2: TGGTGGCTACGACGGGATT
B31: GUUUUAU (DNA:RNA)
RNA: B1 RNA with C25G, C26U, A31U
DNA 1: CAATCTGAATTCCGGTCTCCC
DNA 2: TGGTGGCTACGACGGGATT

Molecular target: T1, RBFOX1 RRM RbFoxmut (Fox-RRM*)
Assay: EMSA; HiTS-Eq, 1 nM pool, 10 min; buffer printed only for the single-RNA assays: 10 mM Tris pH 7.5, 150 mM NaCl, 3.4 mM EDTA, 0.001% NP-40, 30 C
Conditions: tags: His6 N-terminal (pET28a); label: 5' 32P
Summary of the method: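 Purified RbFox RRM (wild type or mutant) was equilibrated for 10 min in 50 µL with 1 nM of a 5′-radiolabelled pool of RNA with 7 randomized nucleotides, its flanks annealed to DNA oligonucleotides, across increasing protein concentrations. Free RNA was separated by 8% native PAGE, excised, reverse-transcribed, PCR-barcoded and sequenced on an Illumina HiSeq 2500. Relative association constants came from read-count changes of each variant against the control reaction, normalised to the cognate motif.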

Binder | binding signal
B1 | 0.0922 KA relative to UGCAUGU
B2 | 0.107 KA relative to UGCAUGU
B3 | 0.0996 KA relative to UGCAUGU
B4 | 0.0963 KA relative to UGCAUGU
B5 | 0.0967 KA relative to UGCAUGU
B6 | 0.0721 KA relative to UGCAUGU
B7 | 0.157 KA relative to UGCAUGU
B8 | 0.0965 KA relative to UGCAUGU
B9 | 0.0979 KA relative to UGCAUGU
B10 | 0.0797 KA relative to UGCAUGU
B11 | 0.0953 KA relative to UGCAUGU
B12 | 0.0592 KA relative to UGCAUGU
B13 | 0.0723 KA relative to UGCAUGU
B14 | 0.0832 KA relative to UGCAUGU
B15 | 0.089 KA relative to UGCAUGU
B16 | 0.097 KA relative to UGCAUGU

Binder | binding signal
B17 | 0.0852 KA relative to UGCAUGU
B18 | 0.0874 KA relative to UGCAUGU
B19 | 0.138 KA relative to UGCAUGU
B20 | 0.0768 KA relative to UGCAUGU
B21 | 0.0842 KA relative to UGCAUGU
B22 | 0.318 KA relative to UGCAUGU
B23 | 0.115 KA relative to UGCAUGU
B24 | 0.0543 KA relative to UGCAUGU
B25 | 0.0639 KA relative to UGCAUGU
B26 | 0.149 KA relative to UGCAUGU
B27 | 0.136 KA relative to UGCAUGU
B28 | 0.093 KA relative to UGCAUGU
B29 | 0.101 KA relative to UGCAUGU
B30 | 0.102 KA relative to UGCAUGU
B31 | 0.114 KA relative to UGCAUGU
